Assay results: PubChem BioAssay AID1508623 (National Center for Advancing Translational Sciences (NCATS), 2021)
Values joined by “and” are separate entries in the source; they are usually repeats but may differ in a detail not shown here. Equal entries are not always repeated. Out of some 48,000 compounds screened, about 450 (0.94%) were called active. The shares of active, inactive and inconclusive entries below differ from those in the screen. Calls follow the shape of the dose curve; as a rule, active = well fitted inhibition curve with a large enough effect; inconclusive = small, poorly fitted or top-dose-only effect; inactive = no such curve, though single readings can be large or run the other way. Potencies of inconclusive entries are doubtful fits and often do not repeat.

assay: Primary qHTS for Identification of Small Molecule Inhibitors of Huntingtin Promoter Activity; conditions: HEK293 HTT promoter firefly luciferase reporter (activity 0% = vehicle and -100% = no light), 24 h; series mostly up to 57.5 µM; also: nearly all actives have a fitted effect of over 50% in size
Outline: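 Quantitative HTS used concentration series of up to 57.5 uM final on HEK293 luciferase reporter cells, 24 h at 37 degrees C. Readout was Dual-Glo firefly luminescence.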
Potency is read from the fitted curve at half-maximal effect; tags tell the direction and shape of the fitted curve.

Q: Which Potency does the source give for `CCOC(=O)c1ccc(NC(=O)CC2C(=O)N(c3ccc(F)cc3)C(=O)N2Cc2ccc3c(c2)OCO3)cc1` (configuration not stated) here?
A: inconclusive: 25.1 µM [inhibitor, single point]

Q: For `Nc1nc(Nc2ccc(S(N)(=O)=O)cc2)nn1C(=O)c1c(F)cccc1F`, which Potency is on record?
A: inconclusive: 43.2 µM [inhibitor, single point]

Q: Which Potency does the source give for `COCCCNc1ncnc2c1cnn2-c1ccc(F)cc1` here?
A: inactive

Q: For `COc1ccc(-n2nc3c(N4CCCC(C(=O)NCCc5ccc(C)cc5)C4)nnc(C)c3c2C)cc1` (configuration not stated), which Potency is on record?
A: inconclusive: 39.8 µM [inhibitor, single point]

Q: With `COc1cc(NS(=O)(=O)c2ccc3c(c2)CCCN3C(C)=O)cc(OC)c1OC` as the compound, how does the Potency read?
A: inconclusive: 17.8 µM [inhibitor, partial curve, poor fit]

Q: For `Cc1ccc(NC(=O)C(=O)NCC(c2cccnc2)N2CCc3ccccc32)cc1Cl` (configuration not stated), which Potency is on record?
A: inconclusive: 22.4 µM [inhibitor, single point]

Q: With `O=C(Nc1ccc(F)c(Cl)c1)c1cc(S(=O)(=O)N2CCCc3ccccc32)ccc1F` as the compound, how does the Potency read?
A: inconclusive: 39.8 µM [inhibitor, single point]

Q: With `CCOCCSc1c(C)cnc2c1c(=O)n(C)c(=O)n2C` as the compound, how does the Potency read?
A: inconclusive: 17.8 µM [inhibitor, partial curve, poor fit]

Q: Which Potency does the source give for `Cc1ccc(N2C(=O)c3[nH]nc(-c4ccc(Cl)cc4)c3C2c2ccc(F)cc2)cc1` (configuration not stated) here?
A: inconclusive: 39.8 µM [inhibitor, single point]

Q: With `COc1cc(OC)cc(C(=O)NCC(c2cccs2)S(=O)(=O)c2ccc(F)c(C)c2)c1` (configuration not stated) as the compound, how does the Potency read?
A: inactive

Q: Which Potency does the source give for `COc1ccccc1NC(=O)CN1C(=O)C2(SCC(=O)N2c2ccc(C)c(C)c2)c2ccccc21` (configuration not stated) here?
A: inconclusive: 10 µM [inhibitor, partial curve, poor fit]

Q: With `CC1=C(c2ccc(C)cc2)S(=O)(=O)N(Cc2ccc(C(=O)Nc3ccc(F)cc3C)cc2)C1=O` as the compound, how does the Potency read?
A: inconclusive: 11.2 µM [inhibitor, partial curve]

Q: With `CSc1ncc(Cl)c(C(=O)N(Cc2ccc(N(C)C)cc2)Cc2ccco2)n1` as the compound, how does the Potency read?
A: inconclusive: 28.2 µM [inhibitor, single point]

Q: Which Potency does the source give for `CCCCOc1ccc(CNC(=O)CCCN2C(=O)CSc3c2c(C)nn3-c2ccccc2)cc1` here?
A: inconclusive: 31.6 µM [inhibitor, single point]

Q: Which Potency does the source give for `CCc1ccc(Cc2cnc(NC(=O)c3ccc4c(c3)CC(c3ccccc3)OC4=O)s2)cc1` (configuration not stated) here?
A: inconclusive: 0.282 µM [inhibitor, full curve, poor fit]

Q: For `O=C(Nc1nc2ccc(F)cc2s1)c1nc(S(=O)(=O)Cc2ccccc2)ncc1Cl`, which Potency is on record?
A: inconclusive: 39.8 µM [inhibitor, single point]

Q: For `COc1ccc2c(c1)CCc1c(C(=O)Nc3c(C)nn(Cc4ccc(Cl)c(Cl)c4)c3C)noc1-2`, which Potency is on record?
A: inconclusive: 15.8 µM [inhibitor, partial curve, poor fit]

Q: With `Cc1nc2nc(SCC(=O)NCCc3ccc(Cl)cc3)nn2c(C)c1Cc1ccccc1` as the compound, how does the Potency read?
A: inconclusive: 3.16 µM [inhibitor, single point]

Q: For `S=c1nc[nH]c2nc[nH]c12`, which Potency is on record?
A: inconclusive: 11.2 µM [inhibitor, partial curve, poor fit] and inconclusive: 15.3 µM [inhibitor, partial curve]

Q: With `CCCCC(CC)CNC(=O)C1CCC(CNS(=O)(=O)c2cccc3nsnc23)CC1` (configuration not stated) as the compound, how does the Potency read?
A: inconclusive: 28.2 µM [inhibitor, single point]

Q: With `Cc1cc(C)cc(OCCCn2c(CCNC(=O)C3CCCCC3)nc3ccccc32)c1` as the compound, how does the Potency read?
A: inconclusive: 20 µM [inhibitor, single point]

Q: Which Potency does the source give for `CC(C)(O)c1cc2nc(-c3cnc(N)nc3)nc(N3CCOCC3)c2s1` here?
A: inconclusive: 0.544 µM [inhibitor, full curve]

Q: Which Potency does the source give for `COc1cc(NC(=O)CSc2nc(-c3ccc(C)cc3)nc3c2Cc2ccccc2O3)cc(OC)c1` here?
A: inactive

Q: With `CC(=O)c1ccc(NC(=O)CSc2cn(CC(=O)N3CCCCCC3)c3ccccc23)cc1` as the compound, how does the Potency read?
A: inconclusive: 28.2 µM [inhibitor, partial curve, poor fit]

Q: Which Potency does the source give for `COc1ccc(NC(=O)CSc2oc(-c3ccco3)nc2S(=O)(=O)c2ccc(Br)cc2)c(OC)c1` here?
A: inconclusive: 39.8 µM [inhibitor, single point]

Q: With `CS(=O)c1ccc(-c2nc(-c3ccc(F)cc3)c(-c3ccncc3)[nH]2)cc1` (configuration not stated) as the compound, how does the Potency read?
A: inactive

Q: With `CCc1sc(Nc2cccc(Cl)c2C)nc1-c1cc2cccc(OC)c2oc1=O` as the compound, how does the Potency read?
A: inconclusive: 10 µM [inhibitor, partial curve, poor fit]

Q: With `O=C(CC1C(=O)OCCN1Cc1ccccc1)Nc1cccc(C(F)(F)F)c1` (configuration not stated) as the compound, how does the Potency read?
A: inconclusive: 28.2 µM [inhibitor, partial curve]

Q: For `CCOc1ccccc1CNC(=O)c1cc2cc(S(=O)(=O)N3CCCCC3)ccc2n1C`, which Potency is on record?
A: inconclusive: 20 µM [inhibitor, single point]

Q: Which Potency does the source give for `CCOc1ccc(N(CC)S(=O)(=O)N2CCCC(C(=O)NCc3ccccc3Cl)C2)cc1` (configuration not stated) here?
A: inconclusive: 28.2 µM [inhibitor, single point]

Q: With `CCc1ccccc1NC(=O)c1ccc2nc(CCc3ccccc3)oc2c1` as the compound, how does the Potency read?
A: inactive

Q: With `CCOC(=O)c1cc(C)n(CC2CCC(C(=O)Nc3ccc(Cl)cc3)CC2)c1C` (configuration not stated) as the compound, how does the Potency read?
A: active: 3.98 µM

Q: With `COc1cc(OC)c(NC(=O)NC(C)c2c(-n3cccc3)sc(C)c2C)cc1Cl` (configuration not stated) as the compound, how does the Potency read?
A: inconclusive: 25.1 µM [inhibitor, single point]

Q: With `Cc1ccc2cccc(NC(=O)c3ccc(-c4cccc([N+](=O)[O-])c4)o3)c2n1` as the compound, how does the Potency read?
A: inconclusive: 10 µM [inhibitor, full curve, poor fit]

Q: With `COc1ccc(/C=C/c2nc(C#N)c(NCCc3ccc(OC)c(OC)c3)o2)cc1OC` as the compound, how does the Potency read?
A: inactive

Q: With `C[N+]1(C)[C@@H]2CC(OC(=O)[C@H](CO)c3ccccc3)C[C@H]1[C@H]1O[C@@H]12` (some centres not stated) as the compound, how does the Potency read?
A: inactive

Q: With `CCCc1nc(C)c2c(=O)[nH]c(-c3cc(S(=O)(=O)N4CCN(CC)CC4)ccc3OCC)nn12` as the compound, how does the Potency read?
A: inconclusive: 19.3 µM [inhibitor, partial curve]
